Data: PubChem BioAssay AID1963576 (National Center for Advancing Translational Sciences (NCATS), 2024)
In all, about 46,000 compounds went through this assay and about 60 (0.1%) were called active. Not shown: some 3% with an inconclusive outcome. Calls follow the shape of the dose curve; as a rule, active = well fitted inhibition curve with a large enough effect; inconclusive = small, poorly fitted or top-dose-only effect; inactive = no such curve, though single readings can be large or run the other way. The list shows a part of the results.

Experiment: Primary qHTS assay for Inhibitors of ovarian cancer metastasis using an organotypic tumor microenvironment (TME) model. Also: nearly all actives have a fitted effect of over 65% in size.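 As to activity change, negative = inhibition: plate controls were DMSO wells for no effect and tomatine positive control wells for full effect.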
Settings: SKOV3ip1-GFP adhesion/invasion on 3D omental model, fluorescence; series mostly up to 45.8 µM; activity change, negative = inhibition: at the top concentration
In short: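 qHTS, 4-pt dose (0.36-46 umol/L); SKOV3ip1-GFP, 1,200 cells/well, no FBS; primary omental fibroblast/mesothelial co-culture 48 h pre-grown; 2 h RT + 16 h 37 C; PBS wash, 4% PFA; GFP count 488/509 nm.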

Activity change, negative = inhibition, inactive:
COc1cccc2c1Oc1nc(-c3ccccc3)nc(SCC(=O)Nc3ccccc3)c1C2 14.8%, COCCCNC(=O)c1ccc(Cn2c(=O)c3ccccc3n(Cc3ccccc3C)c2=O)cc1 -24%, CCOc1ccc(-c2nnc(SCC(=O)Nc3cc(F)ccc3F)o2)cc1 -22.5%, Cc1ccccc1NC(=O)c1c(C)oc2ccc(O)c(CN3CCC(C)CC3)c12 -1.88%, CCCOc1ccc(C(=O)Nc2ccc3nn(-c4ccc(OC)c(Cl)c4)nc3c2)cc1 1.91%, COc1ccc(N(CC(=O)NCCc2ccccc2)S(=O)(=O)c2ccc(OC)c(OC)c2)cc1 -19.6%, Nc1nonc1-c1nc2ccccc2n1Cc1c(Cl)cccc1Cl 5.96%, COc1ccc(CCNC(=O)c2ccc3nc(Cc4ccccc4)oc3c2)cc1OC -0.207%, COc1ccc(NC(=O)c2cnn(-c3ccc(F)cc3F)c2C2CCN(C(=O)OC(C)(C)C)CC2)cc1Cl 2.16%, CC1=C(c2ccc(C)cc2)S(=O)(=O)N(Cc2ccc(C(=O)Nc3ccccc3C)cc2)C1=O -3.98%, Cc1cc2ccccc2n1CCNC(=O)c1ccc(F)cc1 21.6%, Cc1cc(O)c(C(c2ccc(Cl)cc2)N2CCN(c3ccccc3)CC2)c(=O)n1Cc1ccco1 (stereo not given) 15.5%, Fc1ccc(-c2cn3cc(Cc4ccccc4Cl)sc3n2)cc1 -29.9%, COc1ccc(CCn2c(=O)[nH]c3cc(C(=O)N4CCN(c5ccccc5)CC4)ccc3c2=O)cc1OC -14.4%, COCCNC(=O)CCCN1C(=O)CCn2nc(-c3cccn3C)cc21 4.08%, CCOc1ccccc1NC(=O)n1ncc2cc(Cl)ccc21 -2.96%, O=C(c1ccccc1F)N1CCC(c2nc3c(nnn3Cc3cccc(F)c3)c(=O)[nH]2)CC1 -2.01%, Cc1oc(-c2ccc(C(=O)NC(C)c3ccccc3)cc2)nc1CS(=O)(=O)c1ccccc1 (stereo not given) -7.97%, Brc1ccc(-c2noc(-c3ccccc3)n2)o1 0.955%, CCOc1ccccc1NC(=O)CSc1ccc2nnc(CCNS(=O)(=O)c3ccccc3)n2n1 7.91%, COc1ccc(C)cc1NS(=O)(=O)c1c(C)nc2sc(C)cn2c1=O 18.5%, Cc1ccc(Nc2ncnc3c2cnn3-c2ccc(C)cc2)cc1 1.93%, COc1ccc(OCC(=O)N(Cc2cccc(OC)c2)C2CCS(=O)(=O)C2)cc1 (stereo not given) -11.3%, COc1cc(OC)c(NC(=O)c2cc(C(C)=O)n3ccccc23)cc1Cl -4.11%, CCOc1ccc(NS(=O)(=O)c2ccc3[nH]cc(C(=O)NCCOC)c(=O)c3c2)cc1 14.2%, CN(C)CCN(Cc1ccccc1)S(=O)(=O)c1ccc(-c2cc(C(F)(F)F)on2)s1 -18.6%, COc1ccccc1NC(=O)C1=C(C)Nc2nc(SCC(=O)c3ccc(C)cc3)nn2C1c1ccccc1C (stereo not given) -1.55%, COc1ccc(-n2cc(C(=O)N(C)c3cc(C)ccc3OC)c3ccccc3c2=O)cc1 8.65%, COc1ccc(NC(=O)c2sc3nc(C)c(C(=O)Nc4ccc(C)cc4C)c(-c4ccccc4Cl)c3c2N)cc1 3.76%, CCC(=O)N1CCc2cc(CNS(=O)(=O)c3c(C)cc(C)cc3C)ccc21 -3.29%, Cc1ccc(Cn2nnc3sc4c(c3c2=O)CCC(C)C4)cc1 (stereo not given) -6.47%, O=C(Cn1nc(-c2ccccc2)c2cnc3ccccc3c21)Nc1ccccc1 0.314%, Cc1ccc(C)c(NC(=O)CN2C(=O)C3(SCC(=O)N3c3ccc(C)c(C)c3)c3ccccc32)c1 (stereo not given) -19.6%, COC(=O)c1ccccc1NC(=O)c1cc(-c2ccc(Cl)cc2)on1 3.13%, CCCCOc1ccc(C(=O)Nc2ccc(S(=O)(=O)Nc3nc(C)cc(C)n3)cc2)cc1 7.29%, Cc1nnc(NCc2ccc(Cl)cc2)c2c1nnn2Cc1ccc(F)cc1 2.77%, CCc1ccc2ncc(S(=O)(=O)c3ccc(Cl)cc3)c(N3CCN(CC)CC3)c2c1 -1.12%, Cc1nc2ccccc2n1CCc1nc2c3ccccc3nc(SCC(=O)Nc3cccc(C(F)(F)F)c3)n2n1 7.46%, Cc1ccccc1NC(=O)CSc1nc(-c2ccc(F)cc2)nc2c1Cc1ccccc1O2 3.01%, O=C(CCC1N=C2c3ccccc3N=C(SCc3ccccc3Cl)N2C1=O)NCCc1ccccc1 (stereo not given) 4.05%, Cc1cc(C)cc(-n2c(SCC(=O)N3CCCC3)nc3c([nH]c4ccccc43)c2=O)c1 -4.3%, COc1ccc2c(Sc3ccccc3)c(C(=O)NCC(C)c3ccccc3)[nH]c2c1 (stereo not given) 4.46%, CCCCOc1ccc(C(=O)N2CC(=O)Nc3ccc(Br)cc3C2c2ccc(F)cc2)cc1 (stereo not given) 3.88%, COc1ccc(Br)cc1Cn1nnc(C(=O)Nc2ccc(C)cc2C)c1N -17.5%, Cc1cc(C)nc(NS(=O)(=O)c2ccc(NC(=O)c3ccccc3O)cc2)n1 9.62%, CCOc1ccc(N2CC(c3nc4ccccc4n3CCCOc3ccccc3OC)CC2=O)cc1 (stereo not given) -29.8%, CCc1nnc(SCc2cccc(F)c2)c2cc3sc(C)cc3n12 7.21%, COc1cc(OC)c(NC(=O)C(c2ccccc2)N2Cc3ccccc3C2=O)cc1Cl (stereo not given) -14%, COc1ccc(NC(=O)C2CCN(S(=O)(=O)c3ccc4[nH]c(=O)ccc4c3)CC2)cc1Cl 22%, COc1ccc(N2CC(NC(=O)/C=C\c3ccc4c(c3)OCO4)CC2=O)cc1 (stereo not given) -7.9%, O=C(Nc1nonc1-c1ccc(Cl)cc1)c1ccccc1F 22.3%, CCOC(=O)c1scc(-c2ccccc2)c1S(=O)(=O)Nc1ccc(N(C)C)cc1 -6.94%, CC(C)CN(CCCNC(=O)c1cc(-c2ccc(Br)s2)nc2ccccc12)CC(C)C -27.7%, COc1cccc(-c2nc(CS(=O)(=O)CC(=O)NCCc3ccc(OC)cc3OC)c(C)o2)c1 -5.26%, CCCC(CCC)C(=O)Nc1cccc(-c2nc3cccnc3s2)c1C -5.77%, Cc1cccc(CCNC(=O)C2CCC(CNS(=O)(=O)c3ccccc3)CC2)c1 (stereo not given) -8.87%, O=c1c(O)c(-c2ccc(O)c(O)c2)oc2cc(O)ccc12 -4.57%, CCOc1cc(C(=O)Nc2ccc3nc(Nc4cccc(Cl)c4)cc(C)c3c2)cc(OCC)c1OCC 72.8%, CCCCCCNc1nc2c(c(=O)n(C)c(=O)n2C)n1Cc1cccc(C)c1 1.31%, COCCCNC(=O)c1ccc(Cn2c(=O)c3ccccc3n(CC(=O)Nc3c(C)cccc3C)c2=O)cc1 9.54%, Cc1nnc(SCc2cc(=O)n3cccc(C)c3n2)s1 0.0576%, COc1ccc(Cl)cc1NC(=O)CSC1=Nc2ccccc2C2=NC(CCC(=O)NCc3ccc(F)cc3)C(=O)N12 (stereo not given) 6.87%, CCOC(=O)c1ccc(NC(=O)c2cnn(-c3ccc(C)cc3C)c2C2CCN(C(=O)OC(C)(C)C)CC2)cc1 11.3%, O=C(NCc1ccccc1Cl)C1CCN(S(=O)(=O)Cc2ccccc2)CC1 8.27%, CNS(=O)(=O)Cc1ccc2[nH]cc(CCN(C)C)c2c1 6.25%, N#Cc1ccccc1Cn1c(=O)n(CCCC(=O)NCc2ccccc2Cl)c(=O)c2ccccc21 1.45%, O=C(Nc1ccc(F)c(Cl)c1)C1CCN(C(=O)c2ccc(F)cc2)CC1 -6.64%, COc1ccc(OC)c(C2Nc3c(C)cc(C)cc3-c3cc(C)nn32)c1 (stereo not given) -7.15%, Cc1ccc(NS(=O)(=O)c2ccc3c(c2)CC(=O)N3)cc1Cl 1.56%, CCc1c(C)sc2c1CCN(C(=O)Nc1ccccc1C(=O)OC)C2c1ccc(OC)cc1 (stereo not given) 5.63%, CCOc1ccc(Br)cc1C1C(C(=O)OC)=C(C)NC2=C1C(=O)c1ccccc12 (stereo not given) -5.47%, Cc1ccc(-c2cc3ncc(C(=O)c4cc(Cl)c(C)cc4O)cn3n2)cc1 -5.67%, Cc1ccc(Cl)cc1NC(=O)C(Cc1ccccc1)NS(=O)(=O)c1cccc2nsnc12 (stereo not given) 0.162%, COc1ccc(C)cc1NC(=O)c1c2c(nc3ccccc13)C(=O)N(C1CCCCC1)C2 -8.09%, CC(C)c1ccc(C2=CC(c3cccc(Cl)c3)n3c(nc4ccccc43)N2)cc1 (stereo not given) -9.62%, CCC(=O)N1CCc2cc(Br)cc(S(=O)(=O)N3CCCC(C(=O)Nc4cc(C)ccc4OC)C3)c21 (stereo not given) 33.9%, CCOc1ccc(NC(=O)CN2C(=O)C(c3ccc(Cl)cc3)=NC2(C)C)cc1 -4.16%, O=C(NCc1ccc(Cl)cc1)C1=Cc2cc(Br)ccc2OC1 1.6%

outcome, inactive:
O=C(C1CCCN(S(=O)(=O)c2cccc3nonc23)C1)N1CCN(c2ccccc2Cl)CC1 (stereo not given), CCN1C(=O)C2(c3ccccc31)c1c(oc3ccc(C)cc3c1=O)C(=O)N2CCCOC(C)C (stereo not given), Cc1ccc(CCNC(=O)c2ccc(CS(=O)(=O)c3ccc(Cl)cc3)o2)cc1, COC(=O)c1ccccc1NC(=O)CCCN1C(=O)C(c2ccccc2)Oc2cccnc21 (stereo not given), COc1ccc(NC(=O)Cn2c(=O)oc3cc(S(=O)(=O)N4CCCCC4C)ccc32)cc1 (stereo not given), COCCNC(=O)CCCn1c(=O)[nH]c2ccsc2c1=O, CN(C)CCNC(=O)CCCn1c(=O)c2cccn2c2ccccc21, CSCCC(NS(=O)(=O)c1ccc2c(c1)oc(=O)n2C)C(=O)NCc1ccc(F)cc1 (stereo not given), Cc1nn(Cc2noc(C(=O)NCc3cccc(F)c3)n2)c(C)c1Br, Cc1ccc(Cl)cc1N(C)C(=O)c1noc2c1CCCCC2, CC1=C(C(=O)Nc2cccnc2)C(c2ccccc2)n2nc(SCc3ccccc3)nc2N1 (stereo not given), Cc1ccc2nc(-c3ccc(Cl)c(NC(=O)c4ccc5c(c4)OCCO5)c3)oc2c1, Cn1c(=O)n(-c2ccc3c(c2)OCO3)c2nc(-c3ccc(Cl)cc3)nc(C(N)=O)c21, CCS(=O)(=O)N1CC(=O)N(c2ccc(Cl)cc2C)C(C)(C(=O)NC2CCCCCC2)C1 (stereo not given), COc1ccc(CCNC(=O)C2(c3cccs3)CCOCC2)cc1, Cc1nc2ccn(Cc3ccco3)c(=O)c2cc1C(=O)NCc1ccccc1F, CCN(C(=O)CSc1ncc2c(n1)-c1cc(Cl)ccc1N(Cc1ccccc1)S2(=O)=O)c1cccc(C)c1
